Assay results: PMC4336329 (PLoS ONE, 2015)
The campaign covered roughly 310,000 compounds. About 2,200 (0.71%) showed an effect of 50% or more. Effects have a minus sign here. The list shows a part of the results.

biological target: human ether-à-go-go-related gene (hERG) potassium channel (human, UniProt Q12809); test: primary screen, population patch clamp on CHO cells stably expressing hERG
Sequence (Q12809 whole entry, looked up): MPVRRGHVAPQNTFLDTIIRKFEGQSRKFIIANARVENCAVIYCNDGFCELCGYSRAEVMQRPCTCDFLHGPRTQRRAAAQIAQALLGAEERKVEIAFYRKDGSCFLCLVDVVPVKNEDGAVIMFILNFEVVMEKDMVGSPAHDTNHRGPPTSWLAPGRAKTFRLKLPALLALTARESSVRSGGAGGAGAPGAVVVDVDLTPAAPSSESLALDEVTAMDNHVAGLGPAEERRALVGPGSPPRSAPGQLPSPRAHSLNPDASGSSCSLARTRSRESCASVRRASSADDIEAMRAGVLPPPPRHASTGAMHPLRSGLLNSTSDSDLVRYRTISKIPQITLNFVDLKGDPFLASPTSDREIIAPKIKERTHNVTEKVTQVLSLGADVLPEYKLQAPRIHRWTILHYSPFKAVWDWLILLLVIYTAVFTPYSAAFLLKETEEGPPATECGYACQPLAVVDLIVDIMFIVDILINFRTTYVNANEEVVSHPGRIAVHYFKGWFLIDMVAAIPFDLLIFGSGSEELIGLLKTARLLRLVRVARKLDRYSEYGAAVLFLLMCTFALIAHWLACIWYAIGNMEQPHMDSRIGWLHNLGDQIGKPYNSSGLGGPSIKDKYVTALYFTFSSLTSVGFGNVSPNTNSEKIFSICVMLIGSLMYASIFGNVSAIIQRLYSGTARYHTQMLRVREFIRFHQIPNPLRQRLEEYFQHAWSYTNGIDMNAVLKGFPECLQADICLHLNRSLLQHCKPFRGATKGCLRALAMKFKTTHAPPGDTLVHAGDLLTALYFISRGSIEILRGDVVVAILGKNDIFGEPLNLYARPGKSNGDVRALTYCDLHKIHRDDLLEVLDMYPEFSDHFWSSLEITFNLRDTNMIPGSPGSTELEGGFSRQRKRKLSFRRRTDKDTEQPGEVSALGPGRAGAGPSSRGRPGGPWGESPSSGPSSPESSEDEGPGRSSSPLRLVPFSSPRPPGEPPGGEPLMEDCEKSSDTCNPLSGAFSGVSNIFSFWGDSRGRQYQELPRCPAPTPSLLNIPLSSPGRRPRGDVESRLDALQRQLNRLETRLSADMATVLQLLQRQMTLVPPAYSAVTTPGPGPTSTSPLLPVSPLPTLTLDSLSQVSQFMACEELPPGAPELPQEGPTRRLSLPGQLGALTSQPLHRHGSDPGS

Compound | hERG current change (%, negative = inhibition) at 1uM [%]
CC1CC(C)CN(C(=O)COC(=O)Cc2ccc(Br)cc2)C1 (centres unmarked) | 12.4
O=C(/C=C/c1ccco1)NCC1CCCO1 (centres unmarked) | 17.6
C=CCn1c(SCCC(=O)O)nnc1-c1cccs1 | 11.5
COc1ccc(C2(C(=O)NC(C)C)CCCC2)cc1OC | 5.98
C#CCNC(=O)C1=C[C@@H](c2ccc3c(c2)OCO3)[C@H](CCCO)[C@@H](OCC)O1 | 16.2
CCC(=O)Nc1cccc(NC(=O)c2cccc([N+](=O)[O-])c2)c1 | 0.202
CCCC(=O)Nc1nnc(SCC(=O)Nc2nc(C)cs2)s1 | 12.2
Cc1cc(C)c2c(-n3cccc3)c(C(=O)NNS(=O)(=O)c3ccc(Cl)cc3)sc2n1 | 15.8
Cc1c(C)c2ccc(OCC(=O)N3CC[C@@]4(O)CCCC[C@H]4C3)cc2oc1=O | -4.56
COc1cc2c(c(OC)c1OC)-c1c(cc(OC)c(OC)c1OC)C[C@H](C)[C@H](C)C2 | -22.5
CCN(CC)CCCn1c(=S)[nH]c2cc(C(=O)OC)ccc2c1=O | -7.78
CCCC(c1nnnn1CCOC)N1CCN(C(=O)c2ccco2)CC1.Cl (centres unmarked) | 0.283
C/C=C(/C)C(=O)O[C@@H]1[C@H](OC(C)=O)c2c(ccc3ccc(=O)oc23)OC1(C)C | 2
CCn1cc(C(=O)N2CCc3ccccc32)c(=O)c2cc(S(=O)(=O)N3CCCCCC3)ccc21 | -11
COc1ccccc1NS(=O)(=O)c1cccc(C(=O)NCC(c2cccs2)N2CCOCC2)c1 (centres unmarked) | 0.998
C/C(=N/Nc1ncc(Br)cn1)c1ccc(Br)cc1 | 13.4
CCCc1c(C)nc2c(OC)cccc2c1SCC(=O)O | 5.91
CC[n+]1cc(C)ccc1/C=C/c1ccc(N(C)C)cc1.[I-] | 4.74
CCOC(=O)NC1(C(F)(F)F)NC(=O)N(Cc2ccco2)C1=O (centres unmarked) | 8.54

Compound | hERG current change (%, negative = inhibition) at 1uM [%]
CCOP(=O)(OCC)C(NC(=O)Nc1ccc(C)c(Cl)c1)c1ccccc1 (centres unmarked) | -0.0549
COc1ccc(C(C)=O)cc1CC(=O)Nc1cccc(S(=O)(=O)N2CCOCC2)c1 | 3.08
Cc1noc(C(=O)NCc2cccnc2)c1Cl | 10.8
Cc1ccc(SCc2nc(N)nc(Nc3ccccc3C)n2)c(C)c1 | 9.06
CN1CCN(CC(=O)Nc2ccccc2[N+](=O)[O-])CC1 | 15.4
CC1CC(C)CN(CCCSc2ccccc2)C1.O=C(O)C(=O)O (centres unmarked) | -37.7
Cc1cccc(C)c1N1CCN(C(=O)c2ccc3c(c2)OCO3)CC1 | 11.7
CCOC(=O)C1CCCN(c2c(N3CCOCC3)c(=O)c2=O)C1 (centres unmarked) | 8.35
COc1ccc(C)cc1-n1c(C)cc(C=O)c1C | 2.41
COc1ccc(NC(=O)c2cc(S(=O)(=O)N3CCCCC3)ccc2OC)cc1 | 8.71
Cc1ccc(S(=O)(=O)Nc2cc(-c3nn(C)c(=O)c4ccccc34)ccc2N2CCOCC2)cc1 | -2.81
Cc1nc2ccccc2n1CC(=O)OCC(=O)Nc1ccc2c(c1)OCCO2 | 13.3
Cc1cccc(CNc2ccc(C(CC(N)=O)NC(=O)Cc3cccc4ccccc34)cc2[N+](=O)[O-])c1 (centres unmarked) | 9.62
CCOC(=O)CC1C(=O)NCCN1c1nc2ccc(C)cn2c(=O)c1/C=C1\SC(=S)N(CC(C)C)C1=O (centres unmarked) | 3.85
Cc1cc(N(C)C)ccc1N=Nc1ccc(N)cc1 | 7.2
O=S(=O)(/C=C/c1ccccc1)c1ccccc1 | 18.5
Cc1nnc(SCC(=O)Nc2ccccc2N2CCOCC2)s1 | 10.9
COC(CNC(=O)Cc1c(C)nc2c(-c3ccccc3)c(C)nn2c1C)OC | 11.7
COC(=O)c1cccc(NC(=O)CN2CCC(NC(=O)c3cc(OC)c(OC)c(OC)c3)CC2)c1 | 2.35

Compound | hERG current change (%, negative = inhibition) at 1uM [%]
O=C(Nc1cc(Cl)cc(Cl)c1)C(NCC1CCCO1)c1ccccc1 (centres unmarked) | -1.52
CCCn1c(CN2CCN(C(=O)OCC)CC2)nc2cc(NC(C)=O)ccc21 | 18
COc1ccc(NC(=O)COC(=O)c2ccc(S(=O)(=O)N3CCCC3)cc2)cc1OC | 10.5
O=C1NC(=S)N(c2ccc(Br)cc2)C(=O)/C1=C/N1CCN(C(=O)c2ccco2)CC1 | 11.1
CC(=O)c1ccc(NC(=O)C2CC2c2ccccc2)cc1 (centres unmarked) | 10.1
C=CCOC(=O)CCC(=O)Nc1cc(OC)nc(OC)n1 | 9.27
O=[N+]([O-])c1ccc(CNc2ccc(F)cc2)s1 | -6.04
COc1ccc(/C=C/C(=O)C2CC2)cc1COc1cccc(C)c1C | 7.71
NC(=O)C1CCN(C(=O)CN2C(=O)c3ccccc3S2(=O)=O)CC1 | 6.69
Cc1ccccc1Nc1nnc(SCC(=O)NC(=O)NCc2ccco2)s1 | 4.82
COCCCNC(=O)c1ccc(Cn2c(=O)c3ccccc3n(Cc3ccccc3C)c2=O)cc1 | 13.2
Cc1csc(=O)n1CC(=O)OCC(=O)Nc1cc([N+](=O)[O-])ccc1Cl | 10.8
O=[N+]([O-])c1ccc(N2CCCCC2)s1 | 8.39
CCOC(=O)c1ccc(NC(=O)c2c(NC(=O)CCC(=O)O)sc3c2CCCCC3)cc1 | 14.7
CC(=O)c1c(C)[nH]c(C(=O)CSc2nnc(-c3cccs3)n2Cc2ccccc2)c1C | -0.253
CN1/C(=C\C(=O)CSc2nncn2C)C(C)(C)c2ccccc21 | -0.577
CCOc1ccc(N=C2NC(=O)S/C2=C\c2ccc(O)cc2)cc1 | 9.65
CCOC(=O)C1=C(C)NC2=C(C(=O)CCC2)C1c1cn(Cc2ccc(Cl)cc2Cl)nc1-c1ccccc1 (centres unmarked) | 6.72
